Hit rate of the full screen: of about 310,000 compounds, about 2,200 (0.71%) showed an effect of 50% or more. The effect is printed as a negative number. The list shows a part of the results.
Each compound was assayed against human ether-à-go-go-related gene (hERG) potassium channel (human, UniProt Q12809) (assay: primary screen, population patch clamp on CHO cells stably expressing hERG).
Sequence of human ether-à-go-go-related gene (hERG) potassium channel (Q12809 whole entry, looked up): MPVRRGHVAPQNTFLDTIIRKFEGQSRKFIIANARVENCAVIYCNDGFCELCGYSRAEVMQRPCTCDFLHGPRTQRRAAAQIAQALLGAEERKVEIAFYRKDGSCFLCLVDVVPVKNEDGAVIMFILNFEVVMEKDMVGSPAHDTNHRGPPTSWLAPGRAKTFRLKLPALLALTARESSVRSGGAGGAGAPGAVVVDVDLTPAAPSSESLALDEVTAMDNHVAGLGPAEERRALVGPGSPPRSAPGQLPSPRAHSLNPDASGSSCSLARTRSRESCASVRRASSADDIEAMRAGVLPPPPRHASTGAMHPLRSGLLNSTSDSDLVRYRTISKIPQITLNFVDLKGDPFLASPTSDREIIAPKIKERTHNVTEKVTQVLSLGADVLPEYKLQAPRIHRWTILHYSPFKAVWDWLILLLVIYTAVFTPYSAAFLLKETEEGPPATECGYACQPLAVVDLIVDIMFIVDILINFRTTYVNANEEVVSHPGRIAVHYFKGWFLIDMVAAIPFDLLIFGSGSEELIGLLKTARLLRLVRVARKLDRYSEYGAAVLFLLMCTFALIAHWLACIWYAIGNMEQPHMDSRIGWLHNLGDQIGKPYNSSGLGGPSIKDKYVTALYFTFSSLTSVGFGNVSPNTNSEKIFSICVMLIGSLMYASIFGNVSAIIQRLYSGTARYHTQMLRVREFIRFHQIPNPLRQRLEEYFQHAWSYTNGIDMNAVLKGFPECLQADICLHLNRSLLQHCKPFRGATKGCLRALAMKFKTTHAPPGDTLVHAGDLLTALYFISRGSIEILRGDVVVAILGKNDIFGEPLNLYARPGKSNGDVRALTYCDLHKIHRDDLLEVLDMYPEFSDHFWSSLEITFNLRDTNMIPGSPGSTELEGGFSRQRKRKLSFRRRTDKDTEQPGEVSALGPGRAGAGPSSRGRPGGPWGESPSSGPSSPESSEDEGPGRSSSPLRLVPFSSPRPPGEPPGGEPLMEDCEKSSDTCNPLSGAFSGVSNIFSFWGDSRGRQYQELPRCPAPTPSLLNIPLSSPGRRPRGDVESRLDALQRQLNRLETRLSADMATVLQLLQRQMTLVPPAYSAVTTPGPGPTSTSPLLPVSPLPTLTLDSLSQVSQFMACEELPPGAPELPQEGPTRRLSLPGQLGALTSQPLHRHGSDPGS

SMILES	hERG current change (%, negative = inhibition) at 1uM [%]
O=c1c2cnn(-c3ccccc3)c2ncn1Cc1ccccc1F	20
Cc1ccc(S(=O)(=O)CCC(=O)Nc2ccccc2N2CCCC2)cc1	3.25
COc1ccc(C(=O)CSc2nnc(-c3cc4ccccc4cc3O)n2Cc2ccco2)cc1	-16.2
O=C(CCC1CCCCC1)NCCS(=O)(=O)N1CCN(c2ccc(F)cc2)CC1	10.6
COc1ccc(NC(=O)CN(C)C(=O)CSCc2c(C)noc2C)cc1	-1.3
CCOC(=O)C1CCN(C(=O)CCc2nnc3ccc(NCc4ccco4)nn23)CC1	0.564
CN(C)S(=O)(=O)c1cc(NC(=O)CN2CCN(c3ccccc3O)CC2)ccc1Cl	3.48
CCOC(=O)C1(CCOc2ccccc2)CCN(Cc2ccc(F)c(OC)c2)CC1	5.6
CCc1ccc2cccc3c2c1N=CN3C	10.3
CC(=O)c1c(COC(=O)c2ccccc2)nc2ccccc2[n+]1[O-]	-6.24
O=C(NCCCN1CCOCC1)/C(=C/c1cccs1)NC(=O)c1ccccc1	-0.682
CC1CN(C(=O)C(Sc2ccccc2)c2ccccc2)CC(C)O1 (centres unmarked)	5.46
CCOc1ccc(N2C(=O)CCC2=O)cc1	13.5
O=C(CSc1nnnn1-c1ccccc1)c1ccco1	1.23
CCOC(=O)N1CCC(NC(=O)CSCc2cnn(-c3ccccc3)c2-n2cccc2)CC1	1.72
CSc1ccc(CN2CCN(C(=O)CC(C)C)CC2)cc1	9.18
C=CCn1c(O)c(C(C)=NCCCN2CCOCC2)c(=O)[nH]c1=O	10.4
COc1cc(C(c2sc3nc(C)nn3c2O)N2CC(C)OC(C)C2)cc(OC)c1OC (centres unmarked)	6.86
CCN(CC)C(=O)Cn1c(=O)n(Cc2ccc(F)cc2)c(=O)c2sccc21	12.3
CCn1ncc(Cl)c1C(=O)Nc1ccncc1	-1.42
Cc1noc(C)c1COc1ccc(C(=O)OCC(=O)N2CC3(C)CC2CC(C)(C)C3)cc1 (centres unmarked)	9.98
NC(=O)COc1ccc(/C=N\NC(=O)c2ccc(-c3ccccc3)cc2)cc1	12.8

SMILES	hERG current change (%, negative = inhibition) at 1uM [%]
CSc1cccc(NC(=O)C2C3C=CC4(O3)C2C(=O)N(CCN2CCOCC2)C4C(=O)NC2CCCCC2)c1 (centres unmarked)	15.3
COc1ccc(-c2c(-c3cc(OC)cc(OC)c3)n(C)c3ccc(-c4ccc(SC)cc4)cc23)cc1	20.9
COc1cccc(C2c3c(-c4cc(Cl)c(C)cc4O)n[nH]c3C(=O)N2Cc2cccnc2)c1 (centres unmarked)	9.69
COC(=O)c1cn(CC(=O)Nc2ccccc2C)c2ccccc12	17.2
COc1ccc(NS(=O)(=O)c2cc(NC(=O)c3cccs3)ccc2N2CCOCC2)cc1	0.541
Cc1nn(-c2cccc3cccnc23)c(=O)c2ccccc12	11.2
CN(CC(=O)Nc1ccc(Cl)c(C(F)(F)F)c1)C(=O)Cc1c[nH]c2ccccc12	12
COc1cccc(-n2nnc3c(=O)n(CC(=O)Nc4ccc(C)cc4)cnc32)c1	13
Cc1ccc(C(C(=O)NC(C)(C)C)N(Cc2ccc3c(c2)OCO3)C(=O)c2ccc(CN3CCOCC3)o2)o1 (centres unmarked)	7.96
Cc1cc(C)n2nc(C(=O)OC(C)C(=O)c3ccccc3)nc2n1 (centres unmarked)	17
CCCCc1cc(=O)oc2cc(C)cc(OCC(=O)N3C[C@H]4C[C@@H](C3)c3cccc(=O)n3C4)c12	-8.03
COc1ccccc1C(=O)NNS(=O)(=O)c1ccc(F)cc1	15.4
CCn1c(SCC(=O)c2cc(C)n(CC3CCCO3)c2C)nc2ccccc21 (centres unmarked)	4.01
NC(=O)CC[C@H](NC(=O)c1ccc(F)cc1)C(=O)OCC(=O)NCc1ccc(F)cc1	19
CCC1CCCCN1CCCNC(=O)Cn1cnc2sc(C)c(S(=O)(=O)N3CC(C)CC(C)C3)c2c1=O (centres unmarked)	8.19
COc1cc(C(=O)Oc2ccccc2/C=N/NC(=O)c2ccc(C)cc2)cc(OC)c1OC	13.4
COc1ccc(Cl)cc1Nc1nc(NCCO)nc(N2CCCCC2)n1	2.86
CC(C)Sc1nc2c(c(=O)n(C)c(=O)n2C)n1Cc1ccc(Cl)cc1	12.7
CC1=CC(C)(C)NC(=S)N1C(C)c1ccccc1 (centres unmarked)	16.3
COc1ccc2c(c1)C(SCC(=O)NCCc1ccc(Cl)cc1)CC(C)(C)O2 (centres unmarked)	9.04
CCOC(=O)Cc1csc(NS(=O)(=O)c2ccc(F)cc2)n1	14.2
Nc1nnc(-c2cccc([N+](=O)[O-])c2)s1	5.39

— publication PMC4336329 (PLoS ONE, 2015)
